Experimental data reported in PubChem BioAssay AID887 (National Center for Advancing Translational Sciences (NCATS), 2007).
Out of some 74,000 compounds screened, about 1,100 (1.5%) were called active. The shares of active, inactive and inconclusive entries below differ from those in the screen. The call rests on the fitted dose curve; in most records, active means well fitted inhibition curve with a large enough effect; inconclusive means small, poorly fitted or top-dose-only effect; inactive means no such curve, though single readings can be large or run the other way. No potency is given beside an inconclusive call; the fits are too rough.

These compounds were tested against Polyunsaturated fatty acid lipoxygenase ALOX15 (Homo sapiens) (UniProt P16050) (assay: qHTS Assay for Inhibitors of 15-hLO (15-human lipoxygenase)). Details: purified 15hLO-1, xylenol orange hydroperoxide absorbance; activity change, negative = inhibition: at 57.1 µM (top of the series) unless noted.
UniProt P16050, sequence (P16050 whole entry, looked up): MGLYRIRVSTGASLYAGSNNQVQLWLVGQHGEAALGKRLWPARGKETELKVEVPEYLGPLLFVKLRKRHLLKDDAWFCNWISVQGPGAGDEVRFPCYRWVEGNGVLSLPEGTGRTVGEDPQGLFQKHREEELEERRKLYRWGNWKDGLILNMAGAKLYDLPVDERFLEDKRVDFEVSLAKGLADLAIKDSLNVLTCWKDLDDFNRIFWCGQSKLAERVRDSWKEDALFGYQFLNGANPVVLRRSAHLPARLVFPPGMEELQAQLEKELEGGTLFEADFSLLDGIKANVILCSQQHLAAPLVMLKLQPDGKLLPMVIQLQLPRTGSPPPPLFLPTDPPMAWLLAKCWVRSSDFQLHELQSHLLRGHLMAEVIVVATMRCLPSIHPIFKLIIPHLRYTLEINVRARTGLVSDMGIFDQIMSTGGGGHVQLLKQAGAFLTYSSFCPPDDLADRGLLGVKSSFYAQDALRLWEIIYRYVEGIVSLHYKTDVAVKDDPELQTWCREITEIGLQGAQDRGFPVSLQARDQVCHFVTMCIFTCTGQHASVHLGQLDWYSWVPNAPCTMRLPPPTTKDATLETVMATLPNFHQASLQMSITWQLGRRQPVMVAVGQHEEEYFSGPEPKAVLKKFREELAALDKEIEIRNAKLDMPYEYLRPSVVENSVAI
Outline: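 40 nM 15hLO-1 + cpd, 15 min RT; start w/ 50 uM AA (final), 6 min RT; stop/detect w/ 200 uM XO + 300 uM Fe(II) in 50 mM H2SO4, 30 min; A573/A405. Buffer 25 mM Hepes pH 7.5, 0.01% Triton X-100. No-enzyme wells as negative control.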
Further: nearly all actives have a fitted effect of over 55% in size.
On the % scale 0 is the no-effect control and ±100 the full control effect; potency means the concentration at half of the fitted maximal effect; tags describe the fitted curve by direction and shape.

SMILES	Potency	activity change, negative = inhibition
O=C(Nc1nnc(COc2ccc(Cl)cc2)s1)c1cccs1	active: 15.8 µM	–
Cc1cc(N)ccc1-n1c(C)ccc1C	inconclusive [inhibitor, partial curve]	–
O=C(NC1CCCCC1)c1cnn2c(C(F)(F)F)cc(-c3ccco3)nc12	active: 25.1 µM	–
NCCCNCCCCN(CCCN)/[N+]([O-])=N/O	inconclusive [inhibitor, partial curve, poor fit]	–
C=CCOc1ccccc1/C=N/O	inactive	–
N#C/C(=C\c1c[nH]c2ccccc12)C(=O)c1ccc(O)c(O)c1	active: 0.251 µM	–
Cn1c(C(=O)N2CCN(Cc3ccc4c(c3)OCO4)CC2)cc2c(=O)n(C)c3ccccc3c21	inconclusive [inhibitor, partial curve]	–
O=c1/c(=C\c2ccc3c(c2)OCO3)sc2n1CCCN=2	inconclusive [inhibitor, partial curve]	–
CCCSC1=C(C#N)C(c2ccccc2C)CC(=O)N1 (stereo not given)	inconclusive [inhibitor, partial curve]	–
CCCCn1c(NC(=O)c2ccc(F)cc2)c(C#N)c2nc3ccccc3nc21	inconclusive [inhibitor, full curve, poor fit]	–
O=c1oc2ccccc2n1CCn1c2ccccc2c2nc3ccccc3nc21	inconclusive [inhibitor, full curve, poor fit]	–
CCOC(=O)c1c(NC(=O)c2nn(CC)cc2Br)sc2c1CCCCC2	inconclusive [inhibitor, partial curve]	–
O=C(c1ccc(=O)oc1)N1CCCc2ccccc21	inconclusive [inhibitor, single point]	–
CC1=C(C(=O)Nc2ccccc2)C(c2ccco2)C(C#N)=C(SCc2ccccc2)N1 (stereo not given)	inconclusive [inhibitor, single point]	–
O=C1CCCC2=C1C(c1ccco1)Nc1ccc(C(=O)c3ccccc3)cc1N2 (stereo not given)	active: 2.51 µM	–
COc1cc(C(Nc2ccc3c(c2)OCO3)C(=O)NC2CCCCC2)cc(OC)c1OC (stereo not given)	active: 0.631 µM	–
CC(C)=C[C@H]1[C@@H](C(=O)Oc2ccccc2C(C)C)C1(C)C	–	inactive: 4% [at 11.4 µM]
O=c1c(-c2ccc3c(c2)OCCO3)coc2cc(O)cc(O)c12	active: 15.8 µM	–
COc1ccc(C(c2sc3nc(C)nn3c2O)N2CCC(C(N)=O)CC2)cc1OC (stereo not given)	inconclusive [inhibitor, single point]	–
COCCCn1cnc2c(c1=O)c1nc3ccccc3nc1n2-c1ccccc1	inactive	–
CC12C=C(/C=C/C=C/c3ccco3)C(C)(C1)C(/C=C/c1ccco1)CC2=O (stereo not given)	inconclusive [inhibitor, single point]	–
O=C(Oc1ccccc1)N1CCC2(CC1)CCN(c1cccc(-c3ccccc3)c1)CC2	inactive	–
Cn1c(-c2cccc(Br)c2)cnc1NCc1cccnc1	inactive	–
Cc1noc(NS(=O)(=O)c2ccc(NC(=O)COc3ccc(Cl)cc3Cl)cc2)c1C	inconclusive [inhibitor, partial curve]	–

SMILES	Potency	activity change, negative = inhibition
CC(C)Sc1nc2c(cnn2-c2ccc(F)cc2)c(=O)[nH]1	inactive	–
COc1cc(C2NC(C(=O)O)CS2)ccc1OCc1ccccc1C#N (stereo not given)	inconclusive [inhibitor, partial curve]	–
O=C(Nc1ccccc1)C1=C(O)CC(c2ccoc2)CC1=Nc1ccccc1 (stereo not given)	active: 3.98 µM	–
CCn1c2ccccc2c2nnc(SCC(=O)NCc3cccs3)nc21	inactive	–
CC(C)Oc1ccccc1-c1nc(SCC(=O)O)n[nH]1	inconclusive [inhibitor, full curve, poor fit]	–
O=C(CC(Nc1ccc(F)cc1)C(=O)O)c1ccccc1 (stereo not given)	inconclusive [inhibitor, partial curve]	–
Cn1c(C(=O)N2CCCC(C(=O)NCCCSC3CCCCC3)C2)cc2sccc21 (stereo not given)	inconclusive [inhibitor, partial curve]	–
COCCN1CCn2c(nc3cc(NC(=O)c4ccc(OC)cc4)ccc32)C1	inconclusive [inhibitor, partial curve]	–
Cc1ccccc1NS(=O)(=O)c1cccc(-c2nnc(-c3ccccc3)o2)c1	inconclusive [inhibitor, full curve]	–
COc1ccc(Cn2nnnc2C(c2cccnc2)N2CCN(c3ccc(O)cc3)CC2)cc1 (stereo not given)	inconclusive [inhibitor, single point]	–
CCSc1sccc1C1C(C#N)=C(N)N(c2cccnc2)C2=C1C(=O)CCC2 (stereo not given)	inconclusive [inhibitor, single point]	–
O=C(CN(C1CC1)S(=O)(=O)c1ccc(S(=O)(=O)N2CCCCCC2)cc1)Nc1ccccc1	inconclusive [inhibitor, full curve]	–
Cc1cc(NC(=O)COC(=O)c2ccc(S(=O)(=O)N3CCCc4ccccc43)cc2)no1	inactive	–
Cc1ccc2c(c1C)NC(C(=O)O)C1CC=CC21 (stereo not given)	inconclusive [inhibitor, partial curve]	–
CCCn1c(-c2ccc(F)cc2)nc2c(N(C)CCN(C)C)nc(C)nc21	inconclusive [inhibitor, single point]	–
COC(=O)c1ccc2c(c1)N(Cc1nc(-c3ccc(Cl)cc3)oc1C)C(=O)C1CCCN21 (stereo not given)	inconclusive [inhibitor, partial curve]	–
O=C(O)C(c1ccccc1)N1CCCC1 (stereo not given)	inactive	–
COc1ccc(-c2csc(N3CCN(C(=O)c4ccco4)CC3)n2)cc1	inconclusive [inhibitor, partial curve]	–
Cc1nonc1NC(=O)CSc1nnc(-c2ccoc2C)n1CC(C)C	inactive	–
COc1ccc(-c2nnc(SCC(=O)Nc3ccc(C)cc3)n2C)cc1	inconclusive [inhibitor, single point]	–
C=CCSC1=NC(N)=C(C#N)C2(CCCCC2)C1C(N)=O (stereo not given)	inactive	–
O=C(O)c1ccccc1C(=O)Nc1ccccc1	inactive	–
O=C(O)CCSCc1ccc(I)cc1	–	inactive: 4.45% [at 11.4 µM]
CCOC(=O)c1ccc(N2CSC3=C(C#N)C(c4ccc(OC)cc4OC)CC(=O)N3C2)cc1 (stereo not given)	inconclusive [inhibitor, partial curve]	–

SMILES	Potency	activity change, negative = inhibition
O=C(NCCCn1ccnc1)c1ccc2c(c1)OCCO2	inconclusive [inhibitor, single point]	–
CNc1ccccc1C(C)(C)c1cc(-c2ccco2)n[nH]1	inconclusive [inhibitor, single point]	–
Oc1ccc(-c2nc(-c3ccc(O)c(O)c3)cs2)cc1	active: 1.58 µM	–
CCN(CC)c1ccc(NC(=O)C2CCCN(S(=O)(=O)c3cnc[nH]3)C2)c(C)c1 (stereo not given)	inconclusive [inhibitor, full curve]	–
N#CC1=C(N)N2C(=C(C#N)C13CCN(Cc1ccccc1)CC3)Nc1ccccc12	inconclusive [inhibitor, single point]	–
c1ccc(OCc2nn3c(Cn4nnc5ccccc54)nnc3s2)cc1	inconclusive [inhibitor, single point]	–
CC(=O)NCCNc1ncncc1-c1ccccc1C(F)(F)F	inactive	–
CN(Cc1ccco1)c1ccnc(-c2ccoc2)n1	inconclusive [inhibitor, partial curve]	–
Cc1nn(-c2ccc(Cl)cc2)c2sc(C(=O)N3CCN(c4ccccn4)CC3)cc12	inactive	–
COc1ccc(OC)c(N/C=C2/CCCCC2=O)c1	inconclusive [inhibitor, partial curve, poor fit]	–
CC(=O)OC/C=C(\C)CCC=C(C)C	inconclusive [inhibitor, full curve]	–
C/C(=N\O)C(=O)NCC1CCNCC1	inconclusive [inhibitor, single point]	–
O=C(O)/C=C\[C@H](O)c1ccc(Cl)cc1	inconclusive [inhibitor, single point]	–
CCCCNC(=O)C(c1ccc(-c2ccccc2)cc1)N(CCN1CCOCC1)C(=O)CCCCCN1C(=O)NC(c2ccc([N+](=O)[O-])cc2)C(C(=O)OCc2ccccc2)=C1C (stereo not given)	inconclusive [inhibitor, single point]	–
COc1ccccc1CNc1nc(-c2ccoc2)nc2ccccc12	inconclusive [inhibitor, single point]	–
CCOC(=O)c1ccc(N2C(=O)c3n[nH]c(C)c3C2c2ccc(OC)cc2OC)cc1 (stereo not given)	inconclusive [inhibitor, single point]	–
N#Cc1cccc(-c2nc(NCc3ccccc3)c3ccccc3n2)c1	inconclusive [inhibitor, partial curve]	–
O=C1CSC(c2cn(-c3ccccc3)nc2-c2ccc3c(c2)OCCO3)N1CCN1CCOCC1 (stereo not given)	inconclusive [inhibitor, single point]	–
COc1ccc(C(=O)N2CCC3(CCCN(c4ccncc4)C3)CC2)cc1	inactive	–
OC(CN1CCNCC1)Cn1c2ccc(Br)cc2c2cc(Br)ccc21 (stereo not given)	inconclusive [inhibitor, single point]	–
COC(=O)c1ccc(C(NC(=O)OCc2ccccc2)/C(=C/[C@@H](C)C(=O)N[C@@H](CO)Cc2ccccc2)c2cccnc2)cc1 (stereo not given in full)	active: 25.1 µM	–
Cc1ccc(Nc2ncc3c(n2)CC(c2ccco2)CC3=O)c(C)c1 (stereo not given)	active: 20 µM	–
